# According to PubChem BioAssay AID1508642 (National Center for Advancing Translational Sciences (NCATS), 2021):
# Hit rate of the full screen: of about 43,000 compounds, about 200 (0.47%) were called active. Another 12% or so got no clear call; they are omitted. Calls follow the shape of the dose curve; as a rule, active = well fitted cell-killing curve with a large enough effect; inconclusive = small, poorly fitted or top-dose-only effect, or effect the other way; inactive = flat fitted curve, though single readings scatter. The list shows a part of the results.
# Assay: Cell viability qHTS assay in S16 Pmp22-F2sN cells; also: nearly all actives have a fitted effect of over 65% in size
# Settings: S16 Pmp22-F2sN Schwann cells viability, CellTiter-Glo, 24 h; series mostly up to 57.5 µM; activity change, negative = cytotoxicity: at the top concentration
# In short: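 Viability was measured by CellTiter-Glo luminescence (15 min, room temperature). This followed 24 h at 37 °C of compound exposure (23 nL pin transfer) in S16 Pmp22-F2sN Schwann cells, 500-1,000 per well.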
# % is scaled to controls: 0 for no effect and ±100 for the full control effect.
row,SMILES,"activity change, negative = cytotoxicity"
1,CC(C)CN(CC(C)C)c1nc(-c2ccc(Cl)cc2)nc2ccccc12,inactive: -1.64%
2,O=C(NCCCN1CCN(c2ccc(F)cc2)CC1)C1COc2ccccc2C1 (stereo not drawn),inactive: -6.64%
3,CCc1ccc(NC(=O)c2ccc3c(=O)n4nc(Nc5ccccc5C)sc4nc3c2)cc1,inactive: -24.5%
4,COc1ccc(Cl)cc1NC(=O)Cn1c(=O)n(Cc2nc(C)no2)c(=O)c2ccccc21,inactive: -5.99%
5,CCOC(=O)c1c(C)oc2nc(C)nc(N(CC(C)C)CC(C)C)c12,inactive: 2.82%
6,COc1ccc(CCNC(=O)Cn2c(=O)cc(C(F)(F)F)c3c(C)nn(C)c32)cc1OC,inactive: -0.924%
7,Clc1ccc(Nc2c(-c3cccs3)nc3ccc(Cl)cn23)cc1,inactive: 6.91%
8,COc1ccccc1NC(=O)C1=C(C)Nc2nc(SCc3ccccc3F)nn2C1c1cccnc1 (stereo not drawn),inactive: 28.1%
9,Cc1ccc(Cl)cc1NC(=O)c1sc2nc(-c3ccccc3)cn2c1C,inactive: 11.5%
10,CCc1cccc(NC(=O)c2cc3c(=O)[nH]c4ccccc4c3n2C)c1,inactive: 7.7%
11,Cc1ccc(C)c(CSC2=NC(C)(C)Nc3ccccc32)c1,inactive: 4.88%
12,CCOC(=O)c1sc2nc(C)n(CC(=O)Nc3cccc(Cl)c3)c(=O)c2c1C,inactive: 11.7%
13,COc1ccc(CN(C)S(=O)(=O)c2nnc(NC(=O)C(C)C)s2)cc1OC,inactive: -12.5%
14,Cc1ccc2c(n1)sc1c(=O)n(-c3cccc(C(F)(F)F)c3)nnc12,inactive: 5.04%
15,Clc1ccc(OCc2nc(-c3ccc(-n4cccc4)cc3)no2)cc1,inactive: 2%
16,COc1ccc2c(c1)c1c(c(=O)n(Cc3ccccc3)c(=O)n1CC(=O)Nc1cc(C)cc(C)c1)n2C,inactive: 9.95%
17,O=C(Nc1ccccc1OCc1cc(=O)n2ccccc2n1)c1cccc(Br)c1,inactive: 5.83%
18,Cc1cc(C)cc(NC(=O)CSc2oc(-c3ccco3)nc2S(=O)(=O)c2ccccc2)c1,inactive: 1.22%
19,Cc1cccc(N2CCN(C(=O)c3ccc4c(c3)c(C)c(C)n4C)CC2)c1C,inactive: -0.0335%
20,CCOc1ccc(NC(=O)N2CCC(CN3CCCCCC3)CC2)cc1,inactive: 0.953%
21,Cc1ccc(CCNC(=O)CCCn2c(=O)c3ccccc3n(CC(=O)Nc3cc(Cl)ccc3C)c2=O)cc1,inactive: 8.29%
22,Cc1ccc(CN2CCSc3ccc(C(=O)Nc4cc(C)cc(C)c4)cc32)cc1,inactive: -7.81%
23,CN(C(=O)CSc1nnc(-c2ccc([N+](=O)[O-])cc2)o1)C1CCCCC1,inactive: -5.69%
24,COc1ccc(-c2nc3scc(CCNS(=O)(=O)c4cc(F)ccc4OC)n3n2)cc1OC,inactive: 1.69%

row,SMILES,"activity change, negative = cytotoxicity"
1,O=C(Nc1ccc2oc(-c3ccccc3)nc2c1)c1ccc2ccccc2c1,inactive: -18.1%
2,CC(=O)N1c2ccc(S(=O)(=O)N3CCCCCC3)cc2CC1C(=O)NCc1ccccc1 (stereo not drawn),inactive: -14.3%
3,COCCn1c(C)cc(O)c(C(c2ccccc2)N2CCN(CCO)CC2)c1=O (stereo not drawn),inactive: -8.24%
4,COc1cc2c(cc1OC)C(COc1ccc3c(C)cc(=O)oc3c1)N(C(=O)c1cccc(OC)c1OC)CC2 (stereo not drawn),inactive: -6.25%
5,Cc1ccc2c(Sc3ccc(Cl)cc3)c(C(=O)NCCC(C)C)[nH]c2c1,inactive: 9.19%
6,Cc1c(C(=O)N(Cc2ccc(N(C)C)cc2)CC2CCCO2)oc2ccccc12 (stereo not drawn),inactive: 0.0658%
7,Cc1nc2sc(C)c(C)n2c(=O)c1S(=O)(=O)N1CCN(c2ccccc2F)CC1,inactive: -9.62%
8,Cc1cc(C)cc(OCC(=O)Nc2nonc2-c2ccc(Br)cc2)c1,inactive: -1.96%
9,COc1ccc2[nH]cc(CCNC(=O)Nc3ccccc3)c2c1,inactive: -1.73%
10,COc1ccc(CN(C(=O)c2ccccc2F)C2CCS(=O)(=O)C2)cc1 (stereo not drawn),inactive: -9.31%
11,Cc1ccc(NC(=O)CN2C(=O)c3cccnc3Sc3ccccc32)cc1C,inactive: 18.7%
12,CCCSc1ncc(Cl)c(C(=O)Nc2ccc(S(=O)(=O)N3CCCC(C)C3)cc2)n1 (stereo not drawn),inactive: -13%
13,CCc1nnc(SCc2nc(-c3ccccc3Cl)oc2C)c2cc3sc(C)cc3n12,inactive: 20.9%
14,O=C(Nc1nc2c(F)cccc2s1)c1ccc(S(=O)(=O)N2CCOCC2)cc1,inactive: -9.38%
15,CCCC(=O)N1CCc2cc(OC)c(OC)cc2C1COc1ccccc1OC (stereo not drawn),inactive: 3.4%
16,Cc1ccn2c(NC(=O)c3cccc(Cl)c3)c(-c3ccccc3)nc2c1,inactive: -1.61%
17,Cc1cccc(C)c1NC(=O)Cn1c(=O)n(Cc2ccc(C(=O)NCc3ccco3)cc2)c(=O)c2sccc21,inactive: -9.84%
18,CCOC(=O)Cc1cc(C(=O)Nc2ccc(Br)cc2)sc1-c1ccc(C)cc1,inactive: -9.14%
19,CCOc1ccc(C(=O)c2cn(CC(=O)Nc3ccc(OC)cc3)c3cc4c(cc3c2=O)OCO4)cc1,inactive: 26.3%
20,O=C(NCC(c1ccc2c(c1)OCO2)N1CCN(c2ccccc2)CC1)C(=O)Nc1ccc(F)cc1 (stereo not drawn),inactive: 4.33%
21,CC1CCN(S(=O)(=O)c2ccc3c(c2)CCN3C(=O)Nc2cccc(Br)c2)CC1,inactive: 13.8%
22,Cc1ccc(-c2nc3n(n2)C(c2ccccc2Cl)C=C(c2ccc(Cl)cc2)N3)cc1 (stereo not drawn),inactive: -8.5%
23,CCOC(=O)c1ccc(CN(Cc2ccc(C)cc2)S(=O)(=O)c2ccc(F)c(C(=O)Nc3ccc(C)c(F)c3)c2)cc1,inactive: -11.7%
24,CCOCCc1nn2c(=O)cc(COC(=O)c3ccccc3NC(=O)c3ccccc3F)nc2s1,inactive: 4.57%
